Some test systems named below: WM115; WM1716; WM1745; WM3526; WM3619; WM451Lu.
Holding throughout (assay): cell count relative to DMSO control; melanoma cells; higher = more viable cells
Holding throughout (settings): library dose: low library concentration; 72 h

Results on 13 compounds are retold here after the supplement of paper PMC4604168 (melanoma cell lines).

This is one part of the list. Most values come without repeats; read them as rough.
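Note: cell number obtained by counting DAPI-stained nuclei in high-throughput microscope images with image analysis software, screen run in 1,536-well plates.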

`CC[C@]1(O)C[C@H]2CN(CCc3c([nH]c4ccccc34)[C@@](C(=O)OC)(c3cc4c(cc3OC)N(C=O)[C@H]3[C@@](O)(C(=O)OC)[C@H](OC(C)=O)[C@]5(CC)C=CCN6CC[C@]43[C@@H]65)C2)C1` [vincristine] + C=CCNC1=C2C[C@@H](C)C[C@H](OC)[C@H](O)[C@@H](C)/C=C(\C)[C@H](OC(N)=O)[C@@H](OC)/C=C\C=C(/C)C(=O)NC(=CC1=O)C2=O [Tanespimycin] (first compound 0.0001 µM, partner dose 0.002 µM): the cell count in the experiment on WM115 was determined as 59.4%; in the experiment on WM1716 it was 46.6%; in the experiment with WM1745, 89.9%; in the experiment on WM3526 it was 65.3%; in the experiment on WM3619, 42.7%; in the experiment with WM451Lu, 52.6%.
As to `Cc1cc(Nc2cc(N3CCN(C)CC3)nc(Sc3ccc(NC(=O)C4CC4)cc3)n2)n[nH]1` [Tozasertib] + c1cc(-c2cnn3cc(-c4ccc(OCCN5CCCCC5)cc4)cnc23)ccn1 [Dorsomorphin] (first compound 0.006 µM, partner dose 0.4 µM), the cell count is 92.7% in the experiment on WM115; 84.3% in the experiment on WM1716; 79.3% in the experiment on WM1745; 103% in the experiment with WM3526; 93.5% with WM3619; 93% in the experiment with WM451Lu.
For `N#CC[C@H](C1CCCC1)n1cc(-c2ncnc3[nH]ccc23)cn1` [ruxolitinib] + CC(=O)O[C@@]12CO[C@@H]1C[C@H](O)[C@@]1(C)C(=O)[C@H](O)C3=C(C)[C@@H](OC(=O)[C@H](O)[C@@H](NC(=O)OC(C)(C)C)c4ccccc4)C[C@@](O)([C@@H](OC(=O)c4ccccc4)[C@H]21)C3(C)C [Docetaxel] (first compound 1 µM, partner dose 0.0001 µM), the cell count was 71.8% in the experiment with WM115; 53% in the experiment with WM1716; 61.5% in the experiment with WM1745; 63.1% with WM3526; 53.3% in the experiment on WM3619; 61.2% in the experiment with WM451Lu.
`Cc1cc(Nc2cc(N3CCN(C)CC3)nc(Sc3ccc(NC(=O)C4CC4)cc3)n2)n[nH]1` [Tozasertib] + CCCCCCCCCCCC1=C(O)C(=O)C=C(O)C1=O [Embelin] (first compound 0.006 µM, partner dose 1.2 µM): the cell count in the experiment with WM115 is 84%; in the experiment with WM1716, 99%; in the experiment with WM1745 it was 99.6%; in the experiment on WM3526 it was 113%; with WM3619, 109%; in the experiment with WM451Lu it was 102%.
As for `CC[C@]1(O)C[C@H]2CN(CCc3c([nH]c4ccccc34)[C@@](C(=O)OC)(c3cc4c(cc3OC)N(C=O)[C@H]3[C@@](O)(C(=O)OC)[C@H](OC(C)=O)[C@]5(CC)C=CCN6CC[C@]43[C@@H]65)C2)C1` [vincristine] + CCCCCCCCCCCCCCCCCCOP(=O)([O-])OC1CC[N+](C)(C)CC1 [Perifosine] (first compound 0.0001 µM, partner dose 0.4 µM), the cell count in the experiment on WM115 came out at 59%; in the experiment on WM1716, 43.6%; in the experiment with WM1745, 98.1%; with WM3526, 65%; in the experiment with WM3619 it was 71.1%; in the experiment with WM451Lu it was 62.8%.
As for `Cc1cc(Nc2cc(N3CCN(C)CC3)nc(Sc3ccc(NC(=O)C4CC4)cc3)n2)n[nH]1` [Tozasertib] + Nc1nc(F)nc2c1ncn2[C@@H]1O[C@H](CO)[C@@H](O)[C@@H]1O [fludarabine] (first compound 0.006 µM, partner dose 0.2 µM), the cell count in the experiment with WM115 amounted to 75%; in the experiment on WM1716, 87.9%; with WM1745, 78.3%; in the experiment with WM3526 it was 29.8%; in the experiment with WM3619 it was 94.3%; in the experiment on WM451Lu, 61.2%.
Regarding `CC[C@]1(O)C[C@H]2CN(CCc3c([nH]c4ccccc34)[C@@](C(=O)OC)(c3cc4c(cc3OC)N(C=O)[C@H]3[C@@](O)(C(=O)OC)[C@H](OC(C)=O)[C@]5(CC)C=CCN6CC[C@]43[C@@H]65)C2)C1` [vincristine] + C[C@@H](Oc1cc(-c2cnn(C3CCNCC3)c2)cnc1N)c1c(Cl)ccc(F)c1Cl [Crizotinib] (first compound 0.0001 µM, partner dose 0.2 µM), the cell count with WM115 came out at 53.1%; in the experiment on WM1716, 46.6%; with WM1745, 83.4%; with WM3526, 67.4%; with WM3619 it was 66.8%; in the experiment with WM451Lu, 88%.
As for `N#CC[C@H](C1CCCC1)n1cc(-c2ncnc3[nH]ccc23)cn1` [ruxolitinib] + C[C@]1(c2nc3c(C(N)=O)cccc3[nH]2)CCCN1 [Veliparib] (first compound 1 µM, partner dose 1.4 µM), the cell count came to 103% in the experiment with WM115; 93.5% in the experiment with WM1716; 87.1% in the experiment on WM1745; 126% in the experiment with WM3526; 94.8% in the experiment with WM3619; 120% in the experiment on WM451Lu.
As for `CC[C@]1(O)C[C@H]2CN(CCc3c([nH]c4ccccc34)[C@@](C(=O)OC)(c3cc4c(cc3OC)N(C=O)[C@H]3[C@@](O)(C(=O)OC)[C@H](OC(C)=O)[C@]5(CC)C=CCN6CC[C@]43[C@@H]65)C2)C1` [vincristine] + Nc1nc(F)nc2c1ncn2[C@@H]1O[C@H](CO)[C@@H](O)[C@@H]1O [fludarabine] (first compound 0.0001 µM, partner dose 0.2 µM), the cell count in the experiment with WM115 came out at 39.7%; with WM1716 it was 49%; with WM1745 it was 88.8%; with WM3526, 21%; in the experiment on WM3619, 58.8%; in the experiment with WM451Lu it was 51.3%.
For `N#CC[C@H](C1CCCC1)n1cc(-c2ncnc3[nH]ccc23)cn1` [ruxolitinib] + C=CCn1c(=O)c2cnc(Nc3ccc(N4CCN(C)CC4)cc3)nc2n1-c1cccc(C(C)(C)O)n1 [MK1775] (first compound 1 µM, partner dose 0.02 µM), the cell count in the experiment with WM115 came out at 88.2%; with WM1716, 94.5%; in the experiment on WM1745 it was 78.6%; in the experiment on WM3526, 97%; in the experiment with WM3619 it was 117%; in the experiment with WM451Lu, 69.1%.
For `N#CC[C@H](C1CCCC1)n1cc(-c2ncnc3[nH]ccc23)cn1` [ruxolitinib] + O=c1[nH]nc(Sc2ncc([N+](=O)[O-])s2)n1-c1ccc2c(c1)OCCO2 [BI78D3] (first compound 1 µM, partner dose 0.2 µM), the cell count turned out to be 105% in the experiment with WM115; 96.4% with WM1716; 92.8% in the experiment with WM1745; 113% in the experiment on WM3526; 93.6% in the experiment with WM3619; 85.3% in the experiment with WM451Lu.
Regarding `Cc1cc(Nc2cc(N3CCN(C)CC3)nc(Sc3ccc(NC(=O)C4CC4)cc3)n2)n[nH]1` [Tozasertib] + N#CC[C@H](C1CCCC1)n1cc(-c2ncnc3[nH]ccc23)cn1 [ruxolitinib] (first compound 0.006 µM, partner dose 1 µM), the cell count with WM115 is 109%; in the experiment on WM1716, 113%; in the experiment on WM1745, 93.1%; with WM3526, 120%; in the experiment on WM3619, 89%; in the experiment with WM451Lu, 90.1%.
Take `CC[C@]1(O)C[C@H]2CN(CCc3c([nH]c4ccccc34)[C@@](C(=O)OC)(c3cc4c(cc3OC)N(C=O)[C@H]3[C@@](O)(C(=O)OC)[C@H](OC(C)=O)[C@]5(CC)C=CCN6CC[C@]43[C@@H]65)C2)C1` [vincristine] + COCC[n+]1c2c(n(Cc3cnccn3)c1C)C(=O)c1ccccc1C2=O [YM155] (first compound 0.0001 µM, partner dose 0.0004 µM): the cell count is 51.5% in the experiment with WM115; 42.3% in the experiment with WM1716; 88.5% in the experiment on WM1745; 64.5% in the experiment on WM3526; 54.8% with WM3619; 49.8% in the experiment on WM451Lu.
